Out of some 48,000 compounds screened, about 450 (0.94%) were called active. Another 19% or so got no clear call; they are omitted. Calls come from the whole dose curve; as a rule, active = well fitted inhibition curve with a large enough effect; inconclusive = small, poorly fitted or top-dose-only effect; inactive = no such curve, though single readings can be large or run the other way. Some of the results follow.
Assay: Primary qHTS for Identification of Small Molecule Inhibitors of Huntingtin Promoter Activity; note: nearly all actives have a fitted effect of over 50% in size
Details: HEK293 HTT promoter firefly luciferase reporter (activity 0% = vehicle and -100% = no light), 24 h; series mostly up to 57.5 µM; activity change, negative = inhibition: at the top concentration
Outline: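 Firefly luciferase readout (Dual-Glo, 10 min RT) after 24 h, 37 °C compound exposure (final up to 57.5 uM) of HEK293 reporter cells cultured 24 h beforehand; PTC124 at 50 uM final as control inhibitor; activity scaled vehicle 0%, zero RLU -100%.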

Activity change, negative = inhibition, inactive:
COc1ccc(CNC(=O)C(Cc2ccccc2)NS(=O)(=O)c2ccc3c(c2)CCN3C(C)=O)cc1 (stereo not given) -29.5%
CCOc1ccc(NC(=O)CC2C(=O)N(c3ccc(OC)cc3)C(=O)N2C2CCCCC2)cc1 (stereo not given) -5.37%
O=C(CSc1ncc2c(n1)-c1cc(Cl)ccc1N(Cc1ccccc1)S2(=O)=O)NCCc1ccccc1 -11.1%
CCS(=O)(=O)N1CC(CC#N)(n2cc(-c3ncnc4[nH]ccc34)cn2)C1 33.6%
CS(=O)(=O)Nc1ccc(-c2nc3ccccc3s2)cc1 0%
CCOC(=O)COc1cc(C)c(Cl)cc1C(=O)c1ccn2nc(-c3ccc(OC)cc3)cc2n1 -7.21%
CN(CCCN1c2ccccc2CCc2ccccc21)CC(=O)c1ccc(Cl)cc1 0.327%
CCOC(=O)c1ccc(NC(=O)CSc2nc(-c3ccc(F)cc3)cc(C(F)(F)F)c2C#N)cc1 -3.77%
Cc1ccc(NC(=O)Nc2c(C)n(C)n(-c3ccccc3)c2=O)c(Cl)c1 -29.5%
CCOc1ccc(NC(=O)C2=C(C)C(=O)OC23CCC(C)CC3)cc1 (stereo not given) -7.89%
CC(C)c1ccc(NC(=O)Cc2ccc(NC(=O)N3CCCCc4ccccc43)cc2)cc1 -20.2%
COc1ccc(C2CC(=O)c3cc(-c4nc(-c5ccc(C)cc5)cs4)c(=O)[nH]c3C2)cc1 (stereo not given) -8.7%
CCC1CN(C(=O)NCc2ccc(F)cc2)c2cc(Cl)ccc2O1 (stereo not given) -9.89%
CCOc1cccc(CNC(=O)c2ccc(N3CCCC3)c(NC(=O)Nc3ccccc3CC)c2)c1 -11.3%
CCOC(=O)c1c(C)[nH]c(C)c1S(=O)(=O)N(C)CC(=O)NCc1ccc(C)cc1 -32.9%
COc1ccc(NC(=O)C2CCCN(S(=O)(=O)c3c(C)[nH]c(=O)[nH]c3=O)C2)cc1 (stereo not given) -12.8%
CCn1cc(S(=O)(=O)c2ccc(OC)cc2)c(=O)c2cc(F)c(N3CCCCCC3)cc21 0.566%
Nc1nc(Nc2cccc(Cl)c2)sc1C(=O)c1ccc(F)cc1 -23.5%
COc1ccc(-c2nn(-c3ccc(C)c(Cl)c3)c3c2cnc2cc(OC)c(OC)cc23)cc1 5.04%
CCOc1ccc(/C=C/C(=O)Nc2sc3c(c2C(=O)OC)CCCC3)cc1 16.5%
CCC(Oc1ccccc1)C(=O)Nc1cc(-c2ccccc2F)nn1-c1ccccc1 (stereo not given) -32.2%
CCN(CC)S(=O)(=O)c1ccc2c(c1)N(CC(=O)NCCc1ccccc1)C(=O)CO2 -6.61%
CCOc1ccc2nc(N3CCCC(C(=O)Nc4ccc(CC)cc4)C3)sc2c1 (stereo not given) 30.8%
CCc1ccc2oc(-c3cccc(NC(=O)COc4ccccc4Cl)c3)nc2c1 32.6%
CCOc1ccc(NC(=O)CSc2nc3ccsc3c(=O)n2CC)cc1 -27.7%
CCN(CC)C(=O)c1ccc2c(c1)N(Cc1ccccc1F)C(=O)c1ccccc1S2=O (stereo not given) -1.87%
Cc1ccc(NC(=O)Cn2c(=O)nc(-c3ccccc3)c3ccccc32)cc1 -13.2%
CCCCOc1ccc(CNC(=O)c2cnc3sc(N4CCCCCC4)nn3c2=O)cc1 1.67%
CC(=O)OCCN1C(=O)c2c(C)nc3ccc(S(=O)(=O)N4CCOCC4)cc3c2C1=O 2.82%
Cc1cccc(C(=O)n2nc(-c3cccnc3)nc2NCc2ccc(F)cc2)c1 -36.6%
Cc1c(C(=O)NCc2cccc(F)c2)oc2c1-c1[nH]ncc1CC2 -8.23%
CC(C)CCNC(=O)c1cc(-c2ccc(Br)s2)nc2ccccc12 8.35%
Cn1c(=O)[nH]c(=O)c2c1nc(CN1CCN(c3ccccc3)CC1)n2Cc1c(F)cccc1Cl -13.5%
Cc1cccc(NC(=O)c2ccc3[nH]c(C)cc(=O)c3c2)c1 17.6%
CCC(=O)N1CCc2cc(S(=O)(=O)NC(Cc3ccccc3)C(=O)NCc3ccccc3OC)ccc21 (stereo not given) -16.1%
CC(C)(C)c1ccc(C(=O)Nc2ccc(NC(=O)c3ccc(Cl)c(Cl)c3)cc2)cc1 -20.7% [at 11.5 µM]
COc1cccc(NC(=O)Nc2ccc3snnc3c2)c1 -7.75%
COc1ccccc1CNc1nc2ccccc2c2nc(-c3cccc(C)c3)nn12 25.7%
Cc1cccc(CCNC(=O)c2cc3c(=O)[nH]c4ccc(C)cc4c3s2)c1 -3.38%
Clc1ccc2c(c1)CCc1cccnc1C2=C1CCNCC1 -42.3%
COc1cc([N+](=O)[O-])ccc1NC(=O)N1CCC2(CC1)Nc1ccccc1-n1cccc12 -6.89%
CCn1cc(C(=O)NCCN(CC(C)C)CC(C)C)c(=O)c2cc(S(=O)(=O)N(C)C3CCCCC3)ccc21 -7.67%
COc1ccc(-c2nc3sc(CCNC(=O)C(=O)Nc4cc(F)ccc4F)c(C)n3n2)cc1 -9.68%
CCOCCCn1c(SCC(=O)NCc2ccccc2)nc2c(sc3ccccc32)c1=O -5.3%
CCCCOc1ccccc1Cn1c(=O)sc2ccccc21 -12.1%
Cc1cccc(NC(=O)CN(C)S(=O)(=O)c2ccc3c(c2)CCC(=O)N3)c1C -18.7%
CCOc1ccc(C(=O)Nc2cccc(NC(=O)c3ccc(Cl)cc3Cl)c2)cc1 -4.98%
O=C1NCC2(CCN(CCc3ccccc3)CC2)O1 9.92%
Cc1ccc(Nc2nc3ccccc3nc2-n2nc(C)cc2C)c(Cl)c1 -10.9%
CSc1ccc(CNC(=O)c2sc3ncnc(N(C)C4CCCCC4)c3c2C)cc1 -29.3%
Cc1cccc(C(=O)N2c3ncnn3C3(CCCCC3)[C@@H]3CCCC[C@@H]32)c1 -35.6%
CCOC(=O)c1cccc(NS(=O)(=O)c2ccc(-c3coc(C)n3)cc2)c1 -21.1%
COc1cc2c(cc1NC(=O)COc1ccc(Br)cc1)oc1ccccc12 12% [at 11.5 µM]
COc1ccc(-c2cc(C(F)(F)F)n3ncc(-c4ccccc4)c3n2)cc1 -6.88%
COC(=O)c1ccc2c(=O)n(CCc3ccc(S(N)(=O)=O)cc3)c(SCC(=O)C(C)(C)C)nc2c1 -5.5%
Cc1ccc(S(=O)(=O)CC(=O)Nc2nc3c(C)cccc3s2)cc1 -18.3%
Cc1ccc(-c2c3c(=O)n(C)c(=O)n(C)c3c3cnc4ccccc4n23)cc1 -3.72%
Cc1ccc(N2CCN(Cc3nnc(-c4ccccc4F)o3)CC2)c(C)c1 -18.7%
CCOc1ccc(NC(=O)CCc2c(C)nc3nc(-c4cc(OC)cc(OC)c4)nn3c2C)cc1 -10.5%
CC(=O)N1CCc2cc(Br)cc(S(=O)(=O)NCCc3cccc(C)c3)c21 -7.1%

— PubChem BioAssay AID1508623 (National Center for Advancing Translational Sciences (NCATS), 2021)
